# Test results published in PubChem BioAssay AID1508624 (National Center for Advancing Translational Sciences (NCATS), 2021).
# Out of some 48,000 compounds screened, about 120 (0.25%) were called active. The inconclusive results got no clear call from the source; some entries with a clear call stand among them for comparison. Calls follow the shape of the dose curve; as a rule, active = well fitted activation curve with a large enough effect; inconclusive = small, poorly fitted or top-dose-only effect, or another doubt; inactive = no such curve, though single readings can be large or run the other way. Potencies of inconclusive entries are doubtful fits and often do not repeat.
# Assay: Primary qHTS for Identification of Small Molecule Activators of Huntingtin-Antisense Promoter Activity; also: nearly all actives have a fitted effect of over 55% in size
# Details: HEK293 HTT-AS promoter firefly luciferase reporter, 24 h; activity change, positive = activation: at 57.5 µM (top of the series), percent change from vehicle, -100% = no light unless noted
# Procedure, shortened: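 Quantitative HTS used concentration series of up to 57.5 uM final on HEK293 luciferase reporter cells, 24 h at 37 degrees C. Readout was Dual-Glo firefly luminescence.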
# Potency is read from the fitted curve at half-maximal effect; tags tell the direction and shape of the fitted curve.
SMILES,Potency,"activity change, positive = activation"
CCCC(=O)Nc1cc2nn(-c3ccc(OC)cc3)nc2cc1C,"inconclusive: 1 µM [activator, full curve, poor fit]",
COc1ccc(-c2nn(C)c3sc(C(=O)NCCN(C)C)cc23)cc1OC,"inconclusive: 39.8 µM [activator, single point]",
Cc1cc(C)c(NC(=O)Cn2c(=O)n(CCC(C)C)c(=O)c3cccnc32)c(C)c1,"inconclusive: 7.08 µM [activator, single point]",
Cc1c(O)cccc1C(=O)N[C@@H](CSc1ccccc1)[C@H](O)CN1C[C@H]2CCCC[C@@H]2C[C@@H]1C(=O)NC(C)(C)C,,inactive: -44.5%
Cc1ccccc1OCC(=O)Nc1ccc(-c2nc3ncccc3o2)cc1,"inconclusive: 17.8 µM [activator, partial curve, poor fit]",
Cc1ccc(C(=O)Nc2nnc(S(=O)(=O)N3c4ccccc4CC3C)s2)cc1 (stereo not drawn),,inconclusive: -85.5% [activator]
COc1ccc(Nc2cc(C(=O)NC3CCC(C)CC3)c3ccccc3n2)cc1OC (stereo not drawn),"inconclusive: 8.91 µM [activator, partial curve, poor fit]",
Cc1ccc(OC(=O)CSc2nnc(-c3cccs3)o2)cc1,,inactive: 18.6%
O=C(c1ccc2c(c1)N(Cc1ccccc1)C(=O)c1ccccc1S2(=O)=O)N1CCCCCC1,,inconclusive: 18.9% [activator]
Cc1ccc(NC(=O)N2CCC(c3ccccc3)C2)cc1C (stereo not drawn),"inconclusive: 2.24 µM [activator, full curve, poor fit]",
Cc1ccc(-n2nnc(C(=O)Nc3cc(F)ccc3F)c2C)cc1F,"inconclusive: 39.8 µM [activator, partial curve, poor fit]",
CN(C)CCCN1c2ccccc2CCc2ccc(Cl)cc21,inactive,
Cc1ccc(C(=O)Nc2ccc(-c3nc4ccccc4s3)cc2C)cc1C,"inconclusive: 1 µM [activator, full curve, poor fit]",
Cc1ccc(CSC2=Nc3ccccc3C3=NC(CCC(=O)NCc4cccs4)C(=O)N23)cc1 (stereo not drawn),"inconclusive: 15.8 µM [activator, single point]",
Cc1ccccc1C(=O)OCc1cc(=O)n2nc(C3CC3)sc2n1,"inconclusive: 1.78 µM [activator, full curve, poor fit]",
CCCc1nn2c(=O)cc(COC(=O)c3cccs3)nc2s1,"inconclusive: 10 µM [activator, partial curve, poor fit]",
CCCc1nn2c(C)c(-c3ccccc3)nc2s1,"inconclusive: 1.58 µM [activator, full curve, poor fit]",
Cc1ccccc1NC(=O)c1sc2nc(N3CCOCC3)c3c(c2c1N)CC(C)(C)OC3,"inconclusive: 15.8 µM [activator, partial curve]",
CCCN(CCC)CCCNC(=O)Cn1ncc2c3ccccc3n(Cc3ccccc3F)c2c1=O,"inconclusive: 10 µM [activator, partial curve]",
CC(=O)c1nn(-c2ccc(OC(F)(F)F)cc2)nc1Nc1ccccc1,"inconclusive: 0.398 µM [activator, full curve, poor fit]",
Cc1c(NC(=O)c2ccc(C(C)(C)C)cc2)cccc1-c1cn(C)c(=O)c(Nc2ccc(C(=O)N3CCOCC3)cc2)n1,"inconclusive: 1.37 µM [activator, partial curve]",
COC(=O)c1ccc(NS(=O)(=O)c2ccc3[nH]c4c(c3c2)CCCC4)cc1,,inactive: -29.4%

SMILES,Potency,"activity change, positive = activation"
Cc1ccccc1OCc1nc2c3cnn(-c4ccccc4F)c3ncn2n1,"inconclusive: 39.8 µM [activator, partial curve, poor fit]",
CCc1ccc(OCC(=O)Nc2cc(-c3ccc(C)cc3)no2)cc1,"inconclusive: 20 µM [activator, partial curve, poor fit]",
CCCN(CCC)CCCNC(=O)C1CCN(c2nc3ccc(CC)cc3s2)CC1,"inconclusive: 1.78 µM [activator, full curve, poor fit]",
Cc1ccc(NC(=O)Nc2ccc3nc(N4CCN(C)CC4)cc(C)c3c2)cc1F,,inactive: -51.3%
O=C(Nc1ccccc1F)c1nc(SCc2ccccc2F)ncc1Cl,,inactive: -3.69%
Cc1ccc(-c2nnc3ccccc3c2C(=O)Nc2cccc(C(F)(F)F)c2)cc1,"inconclusive: 22.4 µM [activator, single point]",
CCCn1ccc2c(OCC(=O)Nc3ccc(C(F)(F)F)cc3)cccc2c1=O,,inactive: -11.7%
CC(=O)c1cccc(NC(=O)c2cc(-c3ccc4c(c3)OCCO4)on2)c1,"inconclusive: 2 µM [activator, partial curve, poor fit]",
COCCn1c(CNC(=O)c2cc(OC)c(OC)c(OC)c2)nc2cccnc21,,inactive: -1.7%
CCc1ccccc1NC(=O)c1ccc2[nH]c(C)c(C)c2c1,active: 8.91 µM,
Cc1ccc(NC(CNS(=O)(=O)c2ccc(Cl)cc2)c2ccccc2)cc1 (stereo not drawn),,inactive: -22.7%
Cc1cnc(Nc2ccc(N3CCN(C)CC3)cc2)nc1Nc1cccc(S(=O)(=O)NC(C)(C)C)c1,,inactive: -33.6%
Oc1ccc(C=Cc2cc(O)cc(O)c2)cc1,"inconclusive: 15.3 µM [activator, partial curve, poor fit]",
Cc1ccc(CCNC(=O)CN2C(=O)COc3ccc(S(=O)(=O)N4CCCC4)cc32)cc1,,inactive: -6.29%
COc1ccc(-c2cc(OC(=O)c3ccccc3C)c3c(C)oc(C)c3c(=O)c2)cc1,"inconclusive: 17.8 µM [activator, single point]",
COC1=C(OC)C(=O)C(CCCCCCCCCCO)=C(C)C1=O,inactive,
CCc1ccc(C2=CC(c3cccc(C)c3)n3c(nc4ccccc43)N2)cc1 (stereo not drawn),"inconclusive: 1 µM [activator, partial curve, poor fit]",
Cc1ccccc1OCC(=O)Nc1ccc2[nH]c(=O)sc2c1,,inactive: -23.6%
CCCCNC(=O)Cn1c(=O)cc(C)c2c(C)nn(-c3cccc(Cl)c3C)c21,,inactive: -2.8%
CCC(=O)N1CCc2cc(CNS(=O)(=O)c3ccccc3F)ccc21,"inconclusive: 10 µM [activator, partial curve]",
Cc1noc(-c2ccc(N3CCCCC3C)c([N+](=O)[O-])c2)n1 (stereo not drawn),"inconclusive: 2.82 µM [activator, full curve]",
